Read-outs that look alike come from different tables or passages of the source. *1 amine or outer side, *2 acyl side, *3 side chain or, on linkers, in order; H or OH if unused. Where a SMILES comes first, the peptide text is derived from it. Bridges are numbered along the chain shown (N, C = ends). Roman numbers before positions name the chains, in order. [ ]: non-standard residue; d: D form. The star is where a group is joined. X1 = O=C(O)[C@H]1O[C@@H](Oc2ccc(COC(=O)[*:2])cc2N[*:1])[C@H](O)[C@@H](O)[C@@H]1O; Dolaproine = CO[C@@H]([C@@H]1CCCN1)[C@@H](C)C(=O)O; X3 = O=C(CCCCCN1C(=O)CC([*:1])C1=O)NCCC(=O)[*:2]; Dil = CC[C@H](C)[C@H](NC)[C@@H](CC(=O)O)OC; X2 = C[C@@H](N*)[C@@H](O)c1ccccc1; NMeV = CN[C@H](C(=O)O)C(C)C; AEEA = NCCOCCOCC(=O)O
Legend:
NCI-H69 cells [1] = assay type: in vivo, Balb/c nude mice; settings: Example 4 53.7 mg/kg; for Tumor Volume (Mean): intravenous, 4 consecutive days of injection followed by 3 days of rest
Procedure: Balb/c nude mice, 6-8 weeks old, female, sourced from Shanghai Jihui Laboratory Animal Care Co., Ltd.
The cells were collected after they grew to the logarithmic growth phase, washed twice with serum-free medium, and resuspended in serum-free medium. The cells were then collected, counted, and inoculated.
Each mouse was subcutaneously injected with 0.1 mL of NCI-H69 tumor cell suspension containing 50% Matrigel at right axilla (5.00 × 10^6/animal, with the day of administration designated as Day 0). When the tumor volume reached about 100 mm^3, mice were selected and randomly divided into groups (vehicle control and Example 4 treatment groups, with 6 animals per group) using Excel based on their tumor size and body weight. Each mouse received an intravenous injection of 5% DMSO + 95% normal saline or the drug of Example 4 (53.7 mg/kg), with 4 consecutive days of injection followed by 3 days of rest as a cycle.
The mice were measured for body weight twice a week using an electronic balance. The tumor diameter was measured three times a week using a vernier caliper. The tumor volume was calculated as follows: V = 0.5×a×b^2, where a and b were the length and width of the tumor, respectively.
Relative tumor proliferation rate: T/C (%) = TRTV /CRTV × 100%(RTV=Vt/V0). [formula]
Tumor growth inhibition rate: TGI (%) = (1−T/C) × 100%. [formula]

NCI-H69 cells [2] = assay type: in vivo, Balb/c nude mice; settings: for Tumor Volume (Mean ± SEM): Example 4 22.8mpk
[3] = Example 4 22.8 mg/kg, 6 animals per group

CC[C@H](C)[C@@H]([C@@H](CC(=O)N1CCC[C@H]1[C@H](OC)[C@@H](C)C(=O)N[C@H](C)[C@@H](O)c1ccccc1)OC)N(C)C(=O)[C@@H](NC(=O)[C@H](C(C)C)N(C)C(=O)OCc1ccc(O[C@@H]2O[C@H](C(=O)O)[C@@H](O)[C@H](O)[C@H]2O)c(NC(=O)CCNC(=O)CCCCCN2C(=O)CC(SC[C@H](NC(C)=O)C(=O)NCCOCCOCC(=O)NCCOCCOCC(=O)NCCOCCOCC(=O)N[C@@H](CCCNC(=N)N)C(=O)N[C@@H](CCCNC(=N)N)C(=O)N[C@@H](CC(C)C)C(=O)N[C@@H](Cc3ccccc3)C(=O)N[C@H]3CSSC[C@@H](C(=O)N[C@H](C(=O)N[C@@H](Cc4c[nH]c5ccccc45)C(=O)N[C@@H](CCCNC(=N)N)C(=O)N[C@@H](CC(=O)O)C(N)=O)[C@@H](C)O)NC(=O)[C@H]([C@@H](C)O)NC(=O)[C@H](CCCCN)NC(=O)[C@@H](Cc4c[nH]c5ccccc45)NC(=O)[C@H](Cc4ccc(O)cc4)NC3=O)C2=O)c1)C(C)C (stereo partly drawn) [Example 4, Ac-Cys(MC-betaglucuronide-MMAE)-AEEA-AEEA-AEEA-Arg-Arg-Leu-Phe-[Cys-Tyr-D-Trp-Lys-Thr-Cys]-Thr-Trp-Arg-Asp-NH2] (I: Ac-C[AEEA][AEEA][AEEA]RRLFCY[dW]KTCTWRD-NH2 / II: [X1][NMeV]V[Dil][Dolaproine]-X2; linker I:1-II:N via X3; disulfide I:9-I:14)
TGI (NCI-H69 cells [1]; By Day 34): 93.9% | tumor inhibition compared to the vehicle control group (NCI-H69 cells [1]; By Day 34, p< 0.001): significant tumor inhibition | Tumor Volume (Mean) (NCI-H69 cells [1]; Day 16): 307 mm3 | Tumor Volume (Mean) (NCI-H69 cells [1]; Day 20): 376 mm3 | Tumor Volume (Mean) (NCI-H69 cells [1]; Day 23): 376 mm3 | Tumor Volume (Mean) (NCI-H69 cells [1]; Day 27): 238 mm3 | Tumor Volume (Mean) (NCI-H69 cells [1]; Day 30): 135 mm3 | Tumor Volume (Mean) (NCI-H69 cells [1]; Day 34): 68 mm3 | TGI (NCI-H69 cells [2]; By Day 32, Example 4 22.8 mg/kg, intravenous, twice a week): 87.90% | tumor inhibition compared to the vehicle control group (NCI-H69 cells [2]; By Day 32, Example 4 22.8 mg/kg, p< 0.001): significant tumor inhibition | Tumor Volume (Mean ± SEM) (NCI-H69 cells [2]; Day 18, intravenous, twice a week): 149±11 mm3 | Tumor Volume (Mean ± SEM) (NCI-H69 cells [2]; Day 21, intravenous, twice a week): 187±24 mm3 | Tumor Volume (Mean ± SEM) (NCI-H69 cells [2]; Day 25, intravenous, twice a week): 150±44 mm3 | Tumor Volume (Mean ± SEM) (NCI-H69 cells [2]; Day 28, intravenous, twice a week): 149±47 mm3 | Tumor Volume (Mean ± SEM) (NCI-H69 cells [2]; Day 32, intravenous, twice a week): 114±36 mm3 | Tumor Volume (Mean ± SEM) (NCI-H69 cells [2]; Day 35, intravenous, twice a week): 85±24 mm3 | Tumor Volume (Mean ± SEM) (NCI-H69 cells [2]; Day 39, intravenous, twice a week): 40±12 mm3 | Tumor Volume (Mean ± SEM) (NCI-H69 cells [2]; Day 42, intravenous, twice a week): 32±8 mm3 | Tumor Volume (Mean ± SEM) (NCI-H69 cells [2]; Day 46, intravenous, twice a week): 16±12 mm3 | mice that achieved PR (partial response, tumor shrinkage by more than 50%) (NCI-H69 cells [2]; [3]): 2/6 | mice with no change (tumor shrinkage by less than 50% or increase by less than 25%) (NCI-H69 cells [2]; [3]): 1/6
